The supplement of paper PMC10126150
Values marked as one replicate rest on one cluster of the flow cell; about a third of the high ones do not repeat.

What follows are sequences tested on ATP (assay: switch fluorescence ratio, 500 uM ATP over buffer (Cy3 cluster intensity, sum of 5 cycles each) (fold (ratio)); higher = stronger signal-on switching upon ATP binding; sequences stand for … in TCGTCGGCAGCGTCAGATGTGTATAAGAGACAGTTTTTTTTTTTTTTTTTTTTTTTTT…TC). Conditions: aptamer strand: ATP DNA aptamer (quencher-CACCTGGGGGAGTATTGCGGAGGAAGG + anchor), 100 nM annealed; ATP concentration: 500 uM; one replicate.
Method in brief: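 Cy3-labelled switching-strand clusters on a modified Illumina MiSeq flow-cell were annealed to 100 nM quencher-labelled ATP aptamer, imaged in selection buffer, then imaged after 15 min with 500 uM ATP at 22 °C. Five buffer/ATP cycles ran, with NaOH stripping and re-annealing between them. The fluorescence ratio is summed target-cycle over summed buffer-cycle Cy3 intensity per cluster, averaged per switch-domain sequence. Clusters outside 100-1000 RFU were excluded.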
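Also: ATP exposure 15 min at 22 °C before imaging.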

| Sequence | switch fluorescence ratio |
| --- | --- |
| TCATTGTAAG | 1.01 |
| AGGGGCCAG | 0.961 |
| ATAGTTGCG | 1.02 |
| ACTATTCTGA | 0.959 |
| CGGATCTTAG | 0.981 |
| CGAATGTAGT | 0.95 |
| AGATAGGTA | 0.978 |
| ATCTGGGCTC | 1.01 |
| GTTCCCCGGA | 1.01 |
| ATGAGGACGC | 1.06 |
| ACGTACTTTG | 1.47 |
| TCAGACGGGG | 1.02 |
| TGGCTCACGT | 0.956 |
| TTTGCCACTC | 0.94 |
| CTTGCTATTG | 1.03 |
| TTTGCTAGCA | 0.997 |
| TTCGCTGTGT | 0.989 |
| CTCTGCTGG | 1.29 |
| GTAGCGGACG | 1.02 |
| CTGACAGCCG | 1 |
| TGATGTCGTT | 1.14 |
| TAGCTTTCGG | 0.991 |
| GCAGAAAACC | 1.03 |
| CTGCGACGGA | 0.995 |
| AACTTTAGGA | 0.983 |

| Sequence | switch fluorescence ratio |
| --- | --- |
| TAGAGAACCG | 1.04 |
| ACATAAAAGA | 0.995 |
| GTGGACTGCG | 0.961 |
| GCTTTTAAGG | 0.991 |
| TCCATTATA | 0.987 |
| ACTGTATGCG | 1.06 |
| TTGCTCTTAT | 1.07 |
| GTTAAAGGAG | 1.03 |
| GCCATCTGTC | 0.965 |
| CAGTCAAGG | 0.943 |
| TGGCGGAGGG | 0.978 |
| CAGCAGCCTG | 1.04 |
| TAATGTCAC | 1.09 |
| GAGGGACTT | 1 |
| ATCAGATGTT | 1.05 |
| CTGGAGGTAT | 1.09 |
| TCGCTACTTT | 1.08 |
| AGGCTGCGTA | 0.995 |
| AGCGTTTTG | 0.993 |
| CGCTCGCTA | 1.8 |
| CGCGGGAGCG | 0.994 |
| CGGTTCTCGT | 1.03 |
| TCACCTTTGG | 1.02 |
| CTAGGACGGG | 0.974 |
| ATAACGGCGT | 0.98 |

| Sequence | switch fluorescence ratio |
| --- | --- |
| CATAACACCT | 1.31 |
| TAGAAGGAGC | 1 |
| TTGTGCTC | 0.973 |
| ATGCGGCTC | 0.956 |
| AGGTTCCTAC | 1.01 |
| TTTGGGTTTA | 0.97 |
| AGGGTTCAGG | 1.02 |
| CAAAACATAT | 1 |
| TAGGATATCG | 0.998 |
| ATGCGGTGCT | 0.932 |
| AGCAATTG | 1.39 |
| TCTCCGACGT | 2.54 |
| CCGCTTTCAG | 1.4 |
| GGGGACTGCT | 0.976 |
| TTTGTTACCA | 1.05 |
| TTTACTGCAG | 0.959 |
| TTCCATCAGG | 1.31 |
| CCTTTATGTT | 1.03 |
| TCCGGGCGAA | 1.09 |
| TTAGAAGGCG | 1 |
| GAATTCTCAG | 1 |
| GGGAGCTCGG | 1.01 |
| AACTCGAGC | 0.985 |
| TAATCAGGTG | 3.04 |
| GGTGTTATAA | 1.01 |

| Sequence | switch fluorescence ratio |
| --- | --- |
| CCAACCGTCG | 1 |
| GATGTTACT | 0.983 |
| TCCTCTTTGT | 1.05 |
| TTATCGGTGG | 1.04 |
| TTAGCCGGGC | 0.991 |
| ACTGGTTGGT | 1.01 |
| GCGTGGCTGC | 1.01 |
| GCTTAGGGGT | 1.03 |
| TATTTCGGT | 0.953 |
| TAAGACAGAC | 1.05 |
| ATTGTGACTT | 0.964 |
| ATTTAATTCC | 1.08 |
| TGGCATTTGA | 1 |
| AGCCGGTACG | 0.988 |
| ACCCGCTCTC | 3.28 |
| ATGTCCGAAC | 1.06 |
| TGTTGAACGG | 1.06 |
| GCAAATGGCC | 1.02 |
| GAAGGCTTCA | 0.973 |
| GCGTCAGGGC | 1.03 |
| CTCTTTCCCT | 1.01 |
| CAGATAAGGG | 0.924 |
| GGGATACGTC | 1.05 |
| TCTCAGTTC | 1.41 |
| CAATCGGGGA | 0.986 |
